Activation data for 84 compounds are collected here from PubChem BioAssay AID1346428 (National Center for Advancing Translational Sciences (NCATS), 2018).

Screen size: about 48,000 compounds; about 1,200 (2.5%) were called active. Not shown: some 2% with an inconclusive outcome.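 How the source made its calls: active means activation of at least 60% and not above a set upper limit (about 1 call in 100 departs from these limits); inconclusive means activation of 40% to 60%, or above that upper limit; inactive means activation under 40%.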 Some of the results follow.

UniProt O75388, sequence (O75388 whole entry, looked up, the tested form may be a part): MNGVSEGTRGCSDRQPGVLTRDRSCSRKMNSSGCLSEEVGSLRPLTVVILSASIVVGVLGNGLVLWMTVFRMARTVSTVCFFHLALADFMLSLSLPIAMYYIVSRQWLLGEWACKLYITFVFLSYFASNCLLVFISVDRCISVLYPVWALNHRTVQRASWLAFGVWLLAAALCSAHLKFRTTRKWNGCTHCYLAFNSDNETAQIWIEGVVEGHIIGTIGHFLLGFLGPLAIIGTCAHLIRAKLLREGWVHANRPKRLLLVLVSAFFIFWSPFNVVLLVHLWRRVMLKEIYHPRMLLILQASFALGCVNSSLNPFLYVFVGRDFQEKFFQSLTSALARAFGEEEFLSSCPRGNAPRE

The assay has as its target Probable G-protein coupled receptor 32 (Homo sapiens) (UniProt O75388). Kind of assay: qHTS for Agonists of Human Resolvin D1 Receptor DRV1. Further: 0% is about no effect. The note with it: CHO-K1 GPR32 beta-arrestin PathHunter luminescence, 90 min; at 76.9 µM; stronger effect = higher value; zero percent set by DMSO-only wells. The method, boiled down:
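Agonism was scored by beta-Gal fragment complementation (chemiluminescent read, 1 h detection at ambient temperature) reporting beta-arrestin binding to GPR32 in engineered CHO-K1 cells. Compound treatment lasted 90 min at 37 C, normalized to a DMSO basal control.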
(In general: qHTS replaces the single test concentration by a dilution series.)
On to `Cc1ccc(-c2nc3scc(CCNS(=O)(=O)c4c(C)noc4C)n3n2)cc1`, for which the activation is inactive: -10.8%. To `Cn1c(=O)n(C)c2cc(N3CCOCC3)c(NS(=O)(=O)c3ccc(Br)cc3)cc21` belongs inactive: 37.5%; to `CCOc1cc(CNCCSc2nnnn2C)cc(Cl)c1OCc1ccc(Cl)cc1`, inactive: 25.7%. Take `Cc1cccc(N2CCN(C(=O)CCCn3ncn4c(cc5occc54)c3=O)CC2)c1C`: the activation was inactive: -0.997%. The figure for `COc1ccc(-c2cc(C(=O)NCCc3ccccc3)c3c(-c4ccccc4)[nH]nc3n2)cc1` is inactive: -19.9%. Consider `O=C(Cc1ccc(F)cc1)Nc1cccc(-c2nc3cccnc3s2)c1`, for which the activation is inactive: -13.5%. As for `O=C(NCC(c1cccnc1)N1CCc2ccccc2C1)C(=O)Nc1cccc(Cl)c1` (centres undefined), the activation was inactive: -12.6%.

`Cc1ccc(CCNS(=O)(=O)c2ccc3c(c2)CCN3C(=O)CCC(=O)O)cc1`: the activation is inactive: -3.84%. To `CCc1ccc(NC(=O)CCc2c(C)n(C)c3cc(-c4ccccc4C)nn3c2=O)cc1` belongs inactive: -6.88%; to `CC(=O)N1CCc2c(sc3c2c(=O)n(-c2ccccc2)c(=O)n3Cc2cccc(C(F)(F)F)c2)C1`, inactive: -5.46%; to `Cc1ccc(/C=C/c2nc3ccccc3n2S(=O)(=O)c2ccc(Br)cc2)cc1`, inactive: 41.4%.

As for `Cc1ccccc1C(=O)N1CCCCC1CCN1CCCCC1` (centres undefined), the activation is inactive: 0.234%.

Regarding `COc1ccc(N2CCN(C(=O)CCc3c(C)nc4cc(-c5cccc(F)c5)nn4c3C)CC2)cc1`, the activation is inactive: -5.58%. In the case of `CCOC(=O)c1cnc2c(ccc3ccccc32)c1Nc1ccc(OC)cc1OC`, the activation was inactive: -6.9%.

In the case of `COc1ccc(C(=O)c2c(N)c(-c3nc(-c4ccccc4)cs3)c3ccccn23)cc1`, the activation was inactive: 4%. Regarding `CCc1nn(CC(=O)NCCCN2CCN(C)CC2)c(=O)c2cc3occc3n12`, the activation was inactive: -16.4%. To `CSc1ncc(C(=O)N2CCN(c3ccc(Cl)cc3)CC2)c(C)n1` belongs inactive: -4.83%; to `COC(=O)c1c(NC(=O)COc2ccc(Cl)cc2C)sc2c1CCCCC2`, inactive: -0.458%.

Consider `COc1ccc(OC)c(NC(=O)CSC2=Nc3ccccc3C3=NC(CCC(=O)NC4CCCCC4)C(=O)N23)c1` (centres undefined), for which the activation is inactive: -5.1%. On to `CSc1cccc(NC(=O)CC(c2ccc(F)cc2)N2Cc3ccccc3C2=O)c1` (centres undefined), for which the activation was inactive: -20.2%.

On to `COc1ccc(C)cc1NC(=O)c1oc2ccc(S(=O)(=O)N3CCOCC3)cc2c1C`, for which the activation is inactive: -8.99%. As for `Cc1ccc(S(=O)(=O)n2nc(C)c(S(=O)(=O)N3CCCCC3)c2C)cc1`, the activation was inactive: 3.88%. `CCc1ccc(CN(Cc2ccco2)C(=O)c2ccc(C)cc2)cc1`: the activation is inactive: -15.4%.

On to `CCOc1ccc(NC(=O)CC2C(=O)N(c3cccc(C)c3)C(=O)N2CCC2=CCCCC2)cc1` (centres undefined), for which the activation was inactive: -5.13%.

Consider `CCOc1ccc(NC(=O)CCc2c(C)nc3c(c(C)nn3-c3ccccc3)c2C)cc1`, for which the activation is inactive: -13%.

Turning to `CSc1ccc(/C=C/c2nc3ccccc3n2S(=O)(=O)c2ccc(F)c(C)c2)cc1`, the activation is inactive: 23.4%.

`CC(=O)N(Cc1cccnc1)c1nc2cc(C)cc(C)c2s1`: the activation was inactive: -23.4%. `O=C(Nc1ccccc1)N(Cc1cccs1)c1ccc(Cl)cc1`: the activation was inactive: -14.3%. As for `CC(=O)Nc1ccccc1-c1nc2ccccc2n(C(C)C(=O)Nc2cccc(C)c2C)c1=O` (centres undefined), the activation is inactive: -26.5%.

On to `CCc1ccc(C(=O)c2cn(CC(=O)Nc3cccc(C)c3C)c3nc(C)ccc3c2=O)cc1`, for which the activation is inactive: 23%. To `COc1ccc(Cl)cc1NC(=O)CN1C(=O)CSc2ccc(S(=O)(=O)N3CCCC3)cc21` belongs inactive: -19%; to `COc1ccccc1C(=O)N(Cc1ccco1)Cc1ccccc1F`, inactive: -24.7%; to `Cc1cc(NC(=O)c2ccco2)cc(-c2nc3cc(Cl)ccc3o2)c1O`, inactive: -7.43%. To `CCCCN(CC)C(=O)C1CCC(CNS(=O)(=O)c2cccc3nsnc23)CC1` (centres undefined) belongs active: 67.6%; to `CCC(C(=O)N(C)Cc1ccccc1)n1nc(C)c2sc3ccccc3c2c1=O` (centres undefined), inactive: -28.9%; to `Cc1ccc(CNC(=O)c2cc(Sc3ccc(F)cc3F)nc3ccccc23)cc1`, inactive: -13.2%. `Cc1cccc(NC(=O)CSc2nc(C)c(Cc3ccccc3)c(=O)[nH]2)c1C`: the activation was inactive: -13.5%. In the case of `COc1ccc(CCNC(=O)C2=C(C)C(=O)OC23CCCCC3)c(OC)c1`, the activation was inactive: -15%. Regarding `COc1ccc(CNC(=O)CCc2c(C)nn(-c3ccc(N4CCOCC4)nn3)c2C)cc1`, the activation was inactive: 11%. The figure for `CCOC(=O)c1ccc(CN(Cc2ccc(F)cc2)S(=O)(=O)c2cc(C(=O)Nc3ccccc3CC)ccc2F)cc1` is inactive: -16.8%; for `Cc1ccc2ccc3cc(C(=O)Nc4ccc(C)c(F)c4)nc3c2[nH]1` it is active: 60.4%. As to `CCOC(=O)N1CCN(S(=O)(=O)N2CCCC(C(=O)NCc3ccccc3OC)C2)CC1` (centres undefined), the activation is inactive: -16%. As for `CC(=O)N1CCCC1c1nc2ccccc2n1Cc1cc(C)ccc1C` (centres undefined), the activation is inactive: -19.1%. Turning to `COc1ccc(NC(=O)C2CCCN(S(=O)(=O)c3ccc4[nH]c(=O)ccc4c3)C2)cc1OC` (centres undefined), the activation was inactive: -9.96%. Take `CCn1c(=O)n(CC2CCC(C(=O)NC(C)C)CC2)c(=O)c2sccc21` (centres undefined): the activation was inactive: 4.71%. For `COc1ccc2cc3c(N)nn(C(=O)c4ccc(F)cc4Cl)c3nc2c1`, the activation was inactive: 5.08%. Regarding `COc1ccc(NC(=O)CSc2c(C(C)C)cnc3c2c(=O)n(C)c(=O)n3C)c(OC)c1`, the activation is inactive: -12.1%. As for `Cc1cc(NC(=O)CN2CCC(O)CC2)nc2c1c(=O)oc1ccccc12`, the activation was inactive: 38.9%. Consider `COc1ccc(C(=O)NCC(c2ccc3c(c2)OCO3)N2CCN(C)CC2)cc1OC` (centres undefined), for which the activation was inactive: -1.59%. Regarding `CCOC(=O)c1cc(CC)sc1NC(=O)COc1ccccc1C`, the activation was inactive: -3.38%. For the compound `CCN1CCN(c2ncnc3c2cnn3-c2ccc(F)cc2)CC1`, the activation is inactive: 3.76%. In the case of `CCOC(=O)c1c(C)[nH]c(C)c1S(=O)(=O)N1CCC(C(=O)Nc2ccc(OC)c(OC)c2)CC1`, the activation is inactive: -3.48%. On to `CCOc1ccc(-n2c(SCC(=O)c3ccccc3)nc3c([nH]c4ccccc43)c2=O)cc1`, for which the activation is inactive: 16.3%. The figure for `COc1ccc(CC(=O)Nc2ccc(-c3nc4ccccc4s3)c(C)c2)cc1` is inactive: 27.8%.

Turning to `CC(C)c1nc2sc3c(N4CCCCC4)ncnc3c2c2c1CCCC2`, the activation is inactive: 6.86%. Turning to `COc1ccc(NC(=O)c2ccc3oc(=O)c(S(=O)(=O)c4ccc(F)cc4)cc3c2)c(OC)c1`, the activation is inactive: -3.06%. The figure for `COC(=O)c1ccc(CSc2nc3ccncc3n2Cc2ccc(F)cc2)cc1` is inactive: 6.9%; for `COc1ccc(C(=O)Oc2ccc(C3NC(=O)c4c(sc5c4CCN(C)C5)N3)cc2OC)cc1` (centres undefined) it is inactive: -2.06%. To `Cc1ccc(Cl)cc1N1CCN(C(=O)c2cc(S(=O)(=O)N3CCCCC3)cn2C)CC1` belongs inactive: -4.43%; to `Cc1nc2nc(C)c(CCC(=O)NCc3cccc(Cl)c3)c(C)n2n1`, inactive: -3.45%; to `CCOc1ccccc1NC(=O)c1ccc(C(=O)Nc2ccccc2OCC)cc1`, inactive: 7.11%. The figure for `O=C(Cn1c(=O)n(Cc2ccco2)c(=O)c2sc3ccccc3c21)Nc1ccccc1C(F)(F)F` is inactive: 4.59%; for `CCOC(=O)/C=C(C)/C=C/C=C(C)/C=C/c1c(C)cc(OC)c(C)c1C` it is inactive: 30.2%.

For the compound `CC(=O)NCCNC(=O)c1ccc2c(=O)n(CCc3ccccc3)c(=O)[nH]c2c1`, the activation was inactive: -0.415%. Turning to `COc1ccc(C2=C(C(C)=O)Sc3nnc(-c4ccccc4)n3N2C(C)=O)cc1`, the activation is inactive: -15.8%. On to `Cc1ccc(-n2nc(C)c3c(C)c(CCC(=O)NCc4ccccc4Cl)c(C)nc32)cc1`, for which the activation was inactive: -16.3%. As for `Fc1ccc(Cc2cn3cc(-c4ccc(F)cc4)nc3s2)cc1`, the activation was inactive: 15.2%. To `COc1cc(NC(=O)c2cc3cc4cc(OC)ccc4nc3o2)cc(OC)c1` belongs inactive: 46.7%; to `CCOc1cc(C2NC(=O)c3c(sc4c3CCN(C)C4)N2)ccc1OC(=O)c1ccc(F)cc1` (centres undefined), inactive: -1.96%. Consider `CCCCNC(=O)NS(=O)(=O)c1ccc(N)cc1`, for which the activation is inactive: 11.2%.

As to `Cc1ccc(CCNC(=O)c2ccc(CSc3nc4ccncc4n3Cc3ccc(F)cc3)cc2)cc1`, the activation is inactive: -11.4%. The figure for `COC(=O)c1sc2ccccc2c1S(=O)(=O)N1CCN(c2ccc(C(C)=O)cc2)CC1` is inactive: -22.8%; for `Cc1ccc(-n2nc(CO)c(C(=O)NC(C)c3ccccc3)n2)cc1C` (centres undefined) it is inactive: -8.21%. To `O=C(Nc1ccc(F)cc1F)c1cc(-c2ccc3c(c2)OCO3)on1` belongs inactive: -4.27%; to `COc1cc(C2CC(=O)N(CC(=O)Nc3ccccc3F)c3ccccc3S2)cc(OC)c1OC` (centres undefined), inactive: -13.9%. As to `CCC(C(=O)NCCc1ccc(SC)cc1)n1nc(C)c2c(C)n(-c3ccc(C)cc3)nc2c1=O` (centres undefined), the activation is inactive: -19%. With `CC(=O)c1cc(-c2ccc(F)cc2)n(CCC(=O)NC2CCCCC2)c1C`, the activation is inactive: -15.7%. For the compound `Cc1cccc(OCC(=O)Nc2cccc(-c3nc4ccccc4s3)c2)c1`, the activation is inactive: -1.04%. On to `COC(=O)c1ccccc1NC(=O)CCc1c(C)nc2cc(-c3ccc(Cl)cc3)nn2c1C`, for which the activation is inactive: 13.4%. For `Cc1ccc(Cl)cc1N1CCN(C(=O)c2cn(C)c3ccc(S(=O)(=O)N4CCCCC4)cc3c2=O)CC1`, the activation is inactive: -9.07%. To `CC(C)CNc1cc(NC2CCCCC2)c2c3c(onc13)-c1ccccc1C2=O` belongs inactive: -37.2%. Take `O=C(CC1N=C2c3ccccc3N=C(SCc3cccc(F)c3)N2C1=O)NC1CCCCC1` (centres undefined): the activation was inactive: -26.4%. On to `CCSc1nc2sc3c(c2c(=O)n1-c1ccc(C)cc1)CCCC3`, for which the activation was inactive: -6.25%. For the compound `COc1cccc(CNCc2c(C(=O)O)c(C)n(Cc3ccc(F)cc3Cl)c2C)c1OC`, the activation is inactive: 10.7%.
